The campaign covered roughly 200,000 compounds. About 25 (0.01%) were called active. Another 23% or so got no clear call; they are omitted. The call rests on the fitted dose curve; in most records, active means well fitted inhibition curve with a large enough effect in the signal ratio, with a control signal flat (not every such curve was filed as active); inconclusive means small, poorly fitted or top-dose-only effect, or effect the other way, or a change in a side signal; inactive means flat fitted curve, though single readings scatter; the % refers to the signal ratio. The list shows a part of the results, in another mix than the full data. Some structures have more than one record in an assay (separate samples or runs), and their calls can disagree.
On the % scale 0 is the no-effect control and ±100 the full control effect; potency means the concentration at half of the fitted maximal effect.

A short description of this test: qHTS Assay for Modulators of Lamin A Splicing. The settings on record: HeLa LMNA splicing GFP/RFP minigene ratio, 48 h; series mostly up to 46.1 µM; ratio change, negative = inhibition: at the top concentration. The method, boiled down: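 Read-out is the ratio of GFP to DsRed2 object intensity, acquired by 488 nm laser-scanning cytometry on HeLa lamin A-EGFP minigene reporter cells. Compound incubation 48 hrs at 37 °C in Opti-MEM with 2% FBS; DMSO 0.5% final.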
In the case of `Cc1ccc(CNC(=O)C2(c3cccs3)CCOCC2)cc1`, the “ratio change, negative = inhibition” value was inactive: -2.83%. Still for that read-out and setting: under `CC1=C(/C=C/C(C)=C/C=C/C(C)=C/C(=O)O)C(C)(C)CCC1` stands inactive: -15.1%; under `CCO/C([O-])=N/c1c[n+](N2CCOCC2)no1`, inactive: -4.41%. On the same count and under the same terms, the result for `CCCCCCCCCCCCCCCC(O)C(N)CO` (configuration not stated) reads inactive: 8.18%.

As to `CN1C(=O)C(O)(CC(=O)c2ccccc2O)c2cc(Br)ccc21` (configuration not stated), the “ratio change, negative = inhibition” value is inactive: -2.4% [at 46 µM]. Regarding `N[C@@H]1CONC1=O`, the Potency result is “inactive”. On to `COc1cc2nc(N(C)CCCNC(=O)C3CCCO3)nc(N)c2cc1OC` (configuration not stated), for which the “ratio change, negative = inhibition” value was inactive: 0.736% [at 46 µM]. Take `Nc1ncnc2c1ncn2[C@@H]1O[C@H](CO)[C@@H](O)[C@H]1O`: the Potency entry is “inactive”.

Consider `CCC[C@@H]1C[C@@H](C(=O)N[C@H]([C@@H](C)O)[C@H]2O[C@H](SC)[C@H](O)[C@@H](O)C2O)N(C)C1` (some centres not stated), for which the “ratio change, negative = inhibition” value was inactive: -1.53%. Consider `CC[C@H](NC(C)C)[C@H](O)c1ccc(O)c(O)c1`, for which the “ratio change, negative = inhibition” value was inactive: 9.73%. On the same count and under the same terms, under `COc1cc(C2Oc3cc(C4Oc5cc(O)cc(O)c5C(=O)C4O)ccc3OC2CO)ccc1O` (configuration not stated) stands inactive: 5.19%; under `NCCCCCCNS(=O)(=O)c1cccc2c(Cl)cccc12`, inactive: 6.01%. Still for that read-out and setting: under `CN1C2CCC1CC(OC(c1ccccc1)c1ccccc1)C2` (configuration not stated) stands inactive: -13.8% [at 46 µM]. Turning to `CN1CCc2cccc3c2[C@@H]1Cc1ccc(O)c(O)c1-3`, the “ratio change, negative = inhibition” value is inactive: -12.8%. On to `CN(C)CCOC(c1ccccc1)c1ccccc1`, for which the Potency result was “inactive”. `CC(C)NC[C@@H](O)c1ccc(O)c(O)c1`: the “ratio change, negative = inhibition” value was inactive: 11.8%. The same measure, in the same setting: the result for `C[C@@H](C(=O)O)c1cccc(C(=O)c2ccccc2)c1` reads inactive: -7.85%. Same read-out and setting: the result for `NS(=O)(=O)c1cc2c(cc1Cl)NC=NS2(=O)=O` reads inactive: 9.85%; that for `NC(N)=NC(=O)Cc1c(Cl)cccc1Cl`, inactive: -5.06%. As to `NCCc1cnc[nH]1`, the Potency entry is “inactive”.

In the case of `CCN(CC)CCNC(=O)c1cc(Cl)c(N)cc1OC`, the Potency entry was “inactive”. In the case of `COC(=O)C1=C(C)N(Cc2ccco2)C(=O)N[C@H]1c1cccc(C(F)(F)F)c1`, the “ratio change, negative = inhibition” value was inactive: 3.52%. `NC/C=C/C(=O)O`: the Potency entry was “inactive”. Turning to `NC(=O)N/N=C\c1ccc([N+](=O)[O-])o1`, the “ratio change, negative = inhibition” value was inactive: -4.9%. On the same count and under the same terms, the result for `Cc1cc(NC(=O)CCCN2C(=O)/C(=C/c3cccs3)SC2=S)no1` reads inactive: -16.7%; that for `CC(C)[N+](C)(CCOC(=O)C1c2ccccc2Oc2ccccc21)C(C)C`, inactive: -2.35%.

For the molecule `Cn1c(=O)[nH]c2ncn(C)c2c1=O`, the “ratio change, negative = inhibition” value was inactive: -4.81%. `CN/C(=C\[N+](=O)[O-])NCCSCc1ccc(CN(C)C)o1`: the Potency entry is “inactive”. With `O=C1O/C(=C/C(=O)N2CCOCC2)c2ccccc21`, the “ratio change, negative = inhibition” value is inactive: -11.6%. Same read-out and setting: the result for `CCc1nc(N)nc(N)c1-c1ccc(Cl)cc1` reads inactive: -27.7%. As for `CC(C)NCC(O)COc1ccc(CCOCC2CC2)cc1` (configuration not stated), the Potency result was “inactive”. As for `C(=C\c1ccccc1)/CN1CCN(C(c2ccccc2)c2ccccc2)CC1`, the “ratio change, negative = inhibition” value was inactive: 1.11%. On to `CCN(CC)C(=O)/C(=C\c1ccc2c(c1)OCO2)NC(=O)c1ccc(Br)cc1`, for which the “ratio change, negative = inhibition” value was inactive: -6.03%. Still for that read-out and setting: the result for `COC(=O)/C(=C\c1c[nH]c2ccccc12)NC(C)=O` reads inactive: -6.85%. Turning to `COc1ccc2c(c1)c(CC(=O)O)c(C)n2C(=O)c1ccc(Cl)cc1`, the “ratio change, negative = inhibition” value was inactive: -15%. The same measure, in the same setting: the result for `CC(C)C[C@H](NC(=O)[C@H](O)[C@H](N)Cc1ccccc1)C(=O)O` reads inactive: 4.27%.

For the molecule `COCCNc1ncnc2ccc(-c3c(C)noc3C)cc12`, the Potency is active: 2.82 µM.

Turning to `COc1ccc2c(c1OC)C(=O)O[C@@H]2[C@H]1c2c(cc3c(c2OC)OCO3)CCN1C`, the “ratio change, negative = inhibition” value is inactive: 2.49%. For the molecule `Cc1cccc2sc(NNC(=O)c3ccc(S(=O)(=O)N4CC(C)CC(C)C4)cc3)nc12` (configuration not stated), the Potency is active: 17.8 µM. As for `CN1CCN(CCCN2c3ccccc3Sc3ccc(C(F)(F)F)cc32)CC1`, the “ratio change, negative = inhibition” value was inactive: -10.9% [at 46 µM].

In the case of `Nc1ccn([C@H]2CC[C@@H](CO)O2)c(=O)n1`, the “ratio change, negative = inhibition” value is inactive: -26.1%. Still for that read-out and setting: the result for `COc1ccccc1-c1nc(-c2ccc(Br)o2)no1` reads inactive: -2.38%; that for `COc1ccc(-c2cc(=O)c3cc(OC)ccc3o2)cc1`, inactive: 6.29% [at 46 µM]; that for `O=C(O)/C=C\c1ccc(O)c(O)c1`, inactive: -9.84%. The same measure, in the same setting: the result for `Cc1cccc(C)c1OCC(C)N` (configuration not stated) reads inactive: -9.57%. Same read-out and setting: under `COc1cc2c(cc1OC)C1Cc3ccc(OC)c(OC)c3CN1CC2` (configuration not stated) stands inactive: -11.9%; under `CN(C)CCO[C@@H](c1ccc(Cl)cc1)c1ccccn1`, inactive: -7.67%. Consider `O=C(O)C1CCCNC1` (configuration not stated), for which the Potency entry is “inactive”.

Turning to `O=c1ccc2cc(O)c(O)cc2o1`, the “ratio change, negative = inhibition” value was inactive: -16.9%. On to `COc1ccc(C2CNC(=O)C2)cc1OC1CCCC1` (configuration not stated), for which the Potency result is “inactive”. Consider `CC(=O)OC[C@H]1O[C@@H](Sc2cccc3cccnc23)[C@H](OC(C)=O)[C@@H](OC(C)=O)[C@@H]1OC(C)=O`, for which the “ratio change, negative = inhibition” value was inactive: -6.54%. On the same count and under the same terms, under `O=C1OCCN1/N=C/c1ccc([N+](=O)[O-])o1` stands inactive: -11.8%; under `O=C1C2=C(c3ccccc31)[N+](=O)C1CCCCC1N2[O-]` (configuration not stated), inactive: 8.79%.

For `O=C(NNc1c2ccccc2nc2ccccc12)c1ccccc1O`, the Potency is active: 17.8 µM. With `CN(C)c1nc(N(C)C)nc(N(C)C)n1`, the “ratio change, negative = inhibition” value was inactive: 2.79%. The same measure, in the same setting: under `O=C(O)c1cc(-c2ccccc2)nc2ccccc12` stands inactive: 0.635%; under `C[C@H]1C[C@@H]2[C@H]([C@@H](O)C[C@@]3(C)[C@H]2CC[C@]3(O)C(=O)CO)[C@@]2(C)C=CC(=O)C=C12`, inactive: 1.72%; under `CCCNCC(O)COc1ccccc1C(=O)CCc1ccccc1` (configuration not stated), inactive: 2.79%. In the case of `CC(C)NC[C@@H](O)COc1cccc2ccccc12`, the Potency result was “inactive”. For the molecule `Cc1nc2nc(C)c(CCC(=O)NCCCN3CCN(c4cccc(Cl)c4)CC3)c(C)n2n1`, the “ratio change, negative = inhibition” value was inactive: -3.5%.

Regarding `CC1(C)CC(=O)c2sc(NC(=O)CCS(=O)(=O)c3ccccc3)nc2C1`, the Potency is active: 4.47 µM.

Regarding `COc1ccc([C@H]2Sc3ccccc3N(CCN(C)C)C(=O)[C@H]2OC(C)=O)cc1`, the “ratio change, negative = inhibition” value was inactive: -10%.

As to `CC(=O)OCC1OC(Sc2cccc3cccnc23)C(OC(C)=O)C(OC(C)=O)C1OC(C)=O` (configuration not stated), the “ratio change, negative = inhibition” value is inactive: -4.11%. On the same count and under the same terms, the result for `COc1ccc2c(OC)c3ccoc3nc2c1OC` reads inactive: 3.63% [at 46 µM].

Take `Cc1nnc(NS(=O)(=O)c2ccc(N)cc2)s1`: the Potency result is “inactive”. Turning to `CC(C(=O)O)c1ccc(N2Cc3ccccc3C2=O)cc1` (configuration not stated), the “ratio change, negative = inhibition” value is inactive: -2.08%. The same measure, in the same setting: the result for `CCn1nc(C(=O)O)c(=O)c2cc3c(cc21)OCO3` reads inactive: -12%; that for `CC(=O)O[C@H]1C[C@@]2(C)[C@H](C[C@@H](O)[C@H]3[C@@]4(C)CC[C@@H](O)[C@@H](C)[C@H]4CC[C@@]32C)C1=C(CCC=C(C)C)C(=O)O`, inactive: -10.1%.

For the molecule `O=C(O)[C@@H]1CCCNC1`, the “ratio change, negative = inhibition” value was inactive: -8.13%. Regarding `Cc1nnc2c3ccccc3c(-c3cccs3)nn12`, the Potency was active: 7.94 µM. Consider `CCN(CC)CCOc1ccc2nc(N(C)C)sc2c1`, for which the “ratio change, negative = inhibition” value is inactive: -11.1%. On the same count and under the same terms, under `CC(C)CC(=O)N[C@H](C(=O)N[C@H](C(=O)N[C@@H](CC(C)C)[C@@H](O)CC(=O)N[C@@H](C)C(=O)N[C@@H](CC(C)C)[C@@H](O)CC(=O)O)C(C)C)C(C)C` stands inactive: -8.83%.

The values are drawn from PubChem BioAssay AID1487 (National Center for Advancing Translational Sciences (NCATS), 2009).
